Source: patent US20260216362A1, “ANTI-BDCA2 ANTIBODY-DRUG CONJUGATE AND USE THEREOF” (DUALITY BIOLOGICS (SHANGHAI) CO., LTD., priority 2022, published 2026)

Columns and labels:
[1] = test system: human peripheral blood mononuclear cells; assay: Inhibition of R848-induced IFN-α production from human peripheral blood mononuclear cells by BDCA2-ADC; type: cell-based; conditions: 5 μM R848, 24 h
Description: The inhibitory effects of the antibody-drug conjugate molecules of the present application on the production from peripheral blood mononuclear cells were detected. Peripheral blood mononuclear cells produce a large number of cytokines after the stimulation of the TLR7/8 agonist R848. The peripheral blood mononuclear cells were treated in vitro with the BDCA2 antibody-drug conjugate at different concentrations, and IFNα and TNFα produced by the peripheral blood mononuclear cells were quantitatively detected after the stimulation of 5 μM R848 for a certain period of time. The in vitro activity of the ligand-drug conjugates was evaluated based on the extent of cytokine inhibition.
The cryopreserved human peripheral blood mononuclear cells were thawed, resuspended in a complete culture medium and counted, and the cell suspension was adjusted to 2.5×10^6 cells/mL with the culture medium and cultured overnight. […] The supernatant was collected, and the TNF-α and IFN-α concentration levels in the supernatant were detected using an ELISA kit. Dose-response data were fitted to an S-shaped curve using non-linear regression, and IC50 values were calculated.
IFN-α concentration assay was performed using a Dakewe IFN-α ELISA kit (Cat. No. 1110012). […] The reading at wavelength 450 nm was detected using an M2e instrument within 10 min after the termination. […]

[2] = test system: cynomolgus monkey whole blood stimulated with CpG-A; assay: IFN-α after in vitro CpG-A stimulation of whole blood of dosed cynomolgus monkeys; type: in vivo; set-up: average expression level of IFNα on days 0-33 after administration: unit not given here; conditions: 10 mg/kg i.v.
Description: Cytokine expression was detected by whole blood stimulation in vitro.
The cells were cultured at 37° C. for 18 h, and the supernatant was collected. The TNF-α and IFN-α concentration levels in the supernatant were detected using an ELISA kit.
IFN-α concentration assay was performed using a Mabtech Human IFN-α (pan specific) ELISA kit (Cat. No. 3425-1H-20). 50 μL of serially diluted cytokine standard was added to each standard well, 50 μL of test sample was added to each sample well, and 50 μL of PBS was added to each blank control well. The cells were incubated at 37° C. for 2 h. The plate was washed 3 times, the liquid in each well was removed, and 300 µL of 1× PBST buffer working solution was added to each well; and after 1 minute of residence, the liquid in each well was discarded. 100 μL of detection antibody working solution was added to each well, and the cells were incubated at 37° C. for 1 h. […] The reading at wavelength 450 nm was detected using a Molecular device spectra max plus384 instrument within 10 min after the reaction was stopped.
Evaluation criteria in FIGS. 12-13: the average expression level changes of IFNα/TNFα were evaluated after in vitro stimulation of the whole blood with CpGA at 200 μg/mL on days 0-33 after administration. […]

[3] = test system: pDCs in the peripheral blood of cynomolgus monkeys; assay: pDC percentage and BDCA2 expression level on pDCs in peripheral blood of dosed cynomolgus monkeys by FACS; conditions: 10 mg/kg intravenous

B1: Hu033-03-ADC (conjugate)
heavy: EVQLVESGGGLVKPGGSLRLSCAASGFTFSSYGMSWVRQAPGKGLEWVSTISSGDSYTYYPDSVKGRFTISRDNAKNSLYLQMNSLRAEDTAVYYCARQIYYDYAYYFDFWGQGTTVTVSS[human IgG1 constant region not spelt out]
light: DIVLTQSPASLAVSPGQRATITCRASESVSFRTSHLMHWYQQKPGQPPKLLIYGASNLESGVPARFSGSGSETDFTLTINPVEAEDTANYFCQQSIEDPPTFGGGTKVEIKRTVAAPSVFIFPPSDEQLKSGTASVVCLLNNFYPREAKVQWKVDNALQSGNSQESVTEQDSKDSTYSLSSTLTLSKADYEKHKVYACEVTHQGLSSPVTKSFNRGEC
- inhibition of IFN-α secretion [1]: stronger ability to inhibit IFN-α secretion
- IFN-α expression level compared to the blank control group ([2]; CpGA-stimulated whole blood): reduced
- average expression level of IFNα on days 0-33 after administration ([2]; whole blood stimulated with CpGA 200 μg/mL, before administration 34.2 (FIG. 12b) and 34.4 (FIG. 12c)): 7.6
- BDCA2 level on the surface of pDCs in the blood compared to the blank control [3]: reduced
- pDC percentage in the blood compared to the blank control [3]: no significant change
- safety [3]: good safety
